# Over roughly 33,000 sequences, “E-score (-0.5 to 0.5)” has its median near -0.035; the highest 2% begin near 0.35. The list shows a part of the results.
# Molecular target: T1, Pdr3 (UniProt P33200)
# T1 sequence: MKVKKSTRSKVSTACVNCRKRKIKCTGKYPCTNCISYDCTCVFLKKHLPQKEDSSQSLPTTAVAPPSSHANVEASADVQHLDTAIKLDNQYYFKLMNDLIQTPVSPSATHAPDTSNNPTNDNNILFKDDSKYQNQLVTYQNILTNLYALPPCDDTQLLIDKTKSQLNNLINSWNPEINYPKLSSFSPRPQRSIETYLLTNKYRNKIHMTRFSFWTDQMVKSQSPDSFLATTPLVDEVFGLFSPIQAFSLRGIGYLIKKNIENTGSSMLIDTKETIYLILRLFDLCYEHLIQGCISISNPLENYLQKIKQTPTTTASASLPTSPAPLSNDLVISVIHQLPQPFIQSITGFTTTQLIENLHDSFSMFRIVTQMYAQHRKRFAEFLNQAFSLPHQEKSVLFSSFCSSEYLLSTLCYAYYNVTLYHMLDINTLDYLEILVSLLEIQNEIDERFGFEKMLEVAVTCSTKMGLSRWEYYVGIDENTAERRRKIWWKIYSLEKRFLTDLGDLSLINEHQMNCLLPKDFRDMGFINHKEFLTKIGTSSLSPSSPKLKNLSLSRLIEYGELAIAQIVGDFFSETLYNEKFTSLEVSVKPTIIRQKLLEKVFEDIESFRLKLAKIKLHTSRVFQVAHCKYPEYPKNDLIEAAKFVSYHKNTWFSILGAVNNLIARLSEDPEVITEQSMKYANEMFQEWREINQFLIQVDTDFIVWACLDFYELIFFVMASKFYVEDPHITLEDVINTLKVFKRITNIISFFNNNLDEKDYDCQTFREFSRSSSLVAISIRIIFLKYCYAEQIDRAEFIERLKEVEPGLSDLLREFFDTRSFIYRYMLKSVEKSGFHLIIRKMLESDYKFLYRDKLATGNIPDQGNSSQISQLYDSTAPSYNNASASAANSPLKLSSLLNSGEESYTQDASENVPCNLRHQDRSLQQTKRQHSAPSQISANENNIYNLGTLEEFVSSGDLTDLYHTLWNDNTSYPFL
# Test: PBM E-score (8-mer binding enrichment) (E-score (-0.5 to 0.5)); higher = stronger / more preferred TF binding; most listed sequences are background and not binding sites
# Conditions: protein concentration: 200 nM; construct: GST-full length
# Procedure, shortened: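 Yeast transcription factors carrying a GST tag, as full-length proteins or DNA-binding domains, were produced by PURExpress in vitro transcription/translation. About 100-200 nM protein was applied to universal all-10-mer Agilent arrays, double-stranded by primer extension on fresh or once-stripped slides. Bound protein was detected with fluorescent anti-GST, and scans were normalised with masliner. The Universal PBM Analysis Suite gave each ungapped eight-base word, pooled with its reverse complement, an E-score, a modified Wilcoxon-Mann-Whitney statistic.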
row,Sequence,PBM E-score
1,CAGATGCA,-0.278
2,AACCACGA,0.0125
3,CGATAGCG,0.0636
4,CCAGCGGA,0.181
5,ACTAAATA,0.0546
6,ACGCATGC,0.176
7,CCCTCTTA,-0.145
8,AAGGCTTG,-0.0886
9,CAACGTAC,-0.209
10,CCAAATAC,-0.114
11,ACAACACT,-0.104
12,ACGCCGTA,-0.115
13,GGATGTTA,0.228
14,CTCGGAAA,0.372
15,CTTGCAGA,-0.12
16,CTATAATA,0.0617
17,AGGGGTAT,-0.0637
18,CAAGCATA,-0.16
19,GTCGCGGA,0.314
20,AACATAGC,0.107
21,GCATAGGC,-0.289
22,CACATCCA,-0.0451
23,CTGCGGAA,0.357
24,AGCGCGAA,0.188
25,GATATTCA,0.0334

row,Sequence,PBM E-score
1,AATTAGCT,-0.0267
2,GCCCCCCC,-0.335
3,CTCTCACC,0.0689
4,ACAGCCCT,-0.148
5,CGACATCG,-0.0803
6,GTTATCTA,-0.125
7,GACCAGCA,-0.004
8,AACACCGT,-0.0499
9,TCCTTGAA,-0.149
10,AGGGTTCG,-0.146
11,TATTGACA,-0.147
12,ACGGATAT,0.305
13,CCAGGTCC,-0.00185
14,AGATTCGC,-0.0629
15,ATACCACG,0.129
16,ATGGCGTG,-0.0122
17,CCTAGACG,0.012
18,CTAATTTA,-0.142
19,CACTGCAG,-0.0372
20,CGTGTACA,-0.0192
21,CACTTTAA,0.0794
22,ACCAAAGT,-0.0477
23,AACCAGTG,-0.0646
24,CGAAGCAG,-0.0376
25,TTCCTCAA,-0.128

row,Sequence,PBM E-score
1,ACAGCTGG,-0.217
2,GTAAAAGA,-0.134
3,GAAAGCGC,0.0568
4,GAACCTTC,-0.0845
5,AGTCTCCG,0.331
6,GCTGCCAC,0.0205
7,AAGGACAT,-0.0885
8,GAAAAATA,0.0767
9,ACTGACGA,-0.0697
10,AGATACTC,-0.0215
11,AACACTCA,0.127
12,AGGAGCCA,-0.266
13,TGGTGGAA,-0.117
14,ACAGGCCG,0.117
15,GAGTACTC,0.0872
16,GCAGTGTA,-0.0769
17,ATGCCCGG,0.318
18,AAAATCCT,-0.137
19,CCTGGATA,-0.186
20,CCGCCGCG,0.342
21,ATCCTTTG,-0.0527
22,ACCTTTTA,-0.138
23,GATCGGCC,0.116
24,GTATGCAC,-0.134
25,CACTTTTC,0.117

row,Sequence,PBM E-score
1,ACATCGCG,0.0219
2,TAAGTTAA,-0.176
3,GATTGTGC,0.113
4,CCTGCCGC,0.0865
5,TCGGTAAA,0.0204
6,ACCAGCTC,-0.133
7,CGTCAACG,-0.0391
8,TCTGAAAA,-0.0152
9,CATATAAA,-0.142
10,GAGCCACC,-0.068
11,ATGCAAAA,-0.166
12,CATCACCG,0.025
13,CGGATCTC,0.325
14,CCTCGAAC,-0.076
15,CTCTCGGA,0.358
16,GCACTTCA,0.0895
17,ATATTCTC,0.0887
18,CATATGAC,-0.103
19,GAGTTACA,0.0629
20,CATTATGC,0.0385
21,CCCATATA,0.128
22,GGGACACA,0.154
23,AGTGAAAC,-0.0998
24,CCCATCCG,0.223
25,ATTTCTTG,0.0338

row,Sequence,PBM E-score
1,GTAAGCCA,-0.14
2,CATCATGC,-0.246
3,AAGCGGAA,0.387
4,GACGCAAC,-0.0543
5,AAGTCCAT,-0.0399
6,ACAAGGTC,-0.128
7,ATCCATCC,0.171
8,ATTCACGG,0.172
9,GTTAAGAA,-0.0259
10,AGCTAGTG,-0.198
11,CCTCGTGA,-0.0949
12,AATGGACA,-0.0389
13,TGTTATAA,0.0733
14,GCGGAGAA,0.29
15,AACCCAAT,-0.179
16,CAACCCAC,-0.0357
17,CCCTGTAC,-0.17
18,CAACTCCC,0.218
19,CGCTTCGC,-0.0359
20,AAGTTCAC,0.0197
21,AGTTCACG,-0.0469
22,CCTGGCGC,0.126
23,CCGACAAA,0.138
24,CCGAGAAG,0.183
25,CGCAAGTA,-0.0323

row,Sequence,PBM E-score
1,AACCGAAC,0.0918
2,CCGCTCGA,0.185
3,CCTGTCTA,-0.148
4,CGGTGAGC,0.0346
5,ATAGTGTC,-0.0401
6,CATAACTC,-0.165
7,CAGGCAAC,-0.0972
8,AGCCTACC,-0.135
9,CGTGTCGA,-0.0243
10,GCAATAAA,0.0899
11,AATATACG,-0.0829
12,ACCGGACA,0.206
13,CGGCTAGA,0.0367
14,CAAAGCCC,-0.00105
15,AGGAGTTG,-0.0286
16,ACGTGGAC,0.0398
17,AAGCATAT,-0.138
18,AACCTTCA,-0.429
19,ATAAATTC,0.0215
20,AACAAGGT,-0.0672
21,AAGTCTAC,-0.235
22,CCGCACTC,0.226
23,CAGGCTAC,-0.195
24,CGCATATC,0.171
25,CTGGTCAC,-0.178

row,Sequence,PBM E-score
1,GCCCCAGA,0.0958
2,CCACACCC,0.0858
3,CATGATCG,-0.0559
4,TACTCCCA,-0.0591
5,ACCACCCT,-0.173
6,ATCGGCAC,0.232
7,CTATGGGC,0.00103
8,CCCCGCGC,0.197
9,GCCCGGGA,0.393
10,AACACTTC,0.145
11,CGTACCGC,0.224
12,ACACGGGA,0.271
13,AACCGACA,0.0424
14,CAATTTGG,-0.027
15,GCTTGTCA,0.132
16,CTCCCACA,-0.0457
17,CACGTATG,-0.0737
18,CGGAATCA,0.456
19,GGCCTTCA,0.0249
20,AAATGGAG,0.0842
21,AGTTGCGG,0.222
22,ACGCCCTA,-0.103

# Source: the supplement of paper PMC3334620
